Reference: the supplement of paper PMC11417369
± gives the standard deviation of the averaged measurements. This is one part of the list.

test system: PfAP2-G AP2 domain (GST-tagged); experiment: gcPBM binding intensity (ln(normalized median fluorescence intensity)); higher = stronger DNA binding
How it was run: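 An Agilent 4 × 180k array of primer-extended double-stranded 36-bp intergenic genomic probes, with negative controls, was incubated for 1 h with GST-tagged P. falciparum DNA-binding domains expressed in E. coli. Alexa488 anti-GST antibody detected bound protein, scanned at 488 nm. Binding intensity is the highest Masliner-normalised natural-log median intensity across replicate spots of either probe orientation.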

Sequence | gcPBM binding intensity (ln)
AAATATATTATATTTAGTACGCATATATAATATGCA [XGTACX_site4835] | 11 ± 0.71
ATGAAAATTTATATTGCACACATAGGGAATAAAAAA [CACACA_site8667] | 10.22 ± 0.057
ACCATATAAATAAACACACACACACCCATATATATA [CACACA_site2321] | 10.1 ± 0.19
GTTAAACTTAATATCGGTACACACACAAGATAAGAA [XGTACX_site1660] | 11.2 ± 0.7
ATAATATGTATAATCACACATTTTTCTTTTAAGACA [CACACA_site5297] | 9.85 ± 0.16
TATATATCTATATTTACACACAGTTACTATGTAGAT [CACACA_site7532] | 9.755 ± 0.049
CTAAGGTATGATTAATCACACACATAAATATATATA [CACACA_site8847] | 9.79 ± 0.11
GGTTCATTAAAGTGTACACATAAATACCGTAACATT [CACACA_site6002] | 11.9 ± 1
TAATTTAAAATATATAGTACACACGTGAACACAAAT [XGTACX_site792] | 11.6 ± 0.69
CTATTACATTAAATGTGTACATATATATATATATAT [XGTACX_site5233] | 11.6 ± 0.96
GTAAATACACATATGTGTACATATATATATATATAT [XGTACX_site3696] | 11.5 ± 0.86
AGAATAAGAATTATTAGTACTTATAAATATTATATT [XGTACX_site7228] | 10.9 ± 0.58
GTGGCTACTATATATTGTACGATATTATATATATAC [XGTACX_site8376] | 11.1 ± 0.6
TCTTATGAATATCCCCGTACACATATATTTCTTATA [XGTACX_site6877] | 11.3 ± 0.69
TTGTTTTTGTTCTTGGGTACTTAAATTATAAATGAT [XGTACX_site113] | 11.3 ± 0.79
AGCTACACACCACAATGTACATAAATATATATGTGA [XGTACX_site1483] | 11 ± 0.54
TTATATTATACATACACACCCATATAATATGTTTTT [CACACA_site4636] | 10.02 ± 0.085
ATATATTTATATAAATGTACATACAGCACATTTATA [XGTACX_site4725] | 10.8 ± 0.59
CAAATATACATATGTAGTACATGTTGTAGATAATTT [XGTACX_site2790] | 11.5 ± 0.85
GGATAATATATTAGAACACACATATAGATGTAAAAA [CACACA_site6229] | 10.06 ± 0.021
TACTTTATATAAAGATCAAAAAATAAATAATTATAA [TGCATGCA_negctrl_site446] | 9.985 ± 0.021
GAAGCCCTATGAAAAGTGCGGTTCATGAACAAAGAA [GTGCAC_site9828] | 10.1 ± 0.11
AGAATATTTAATTCAACACACATACATATTTATTAA [CACACA_site5318] | 9.81 ± 0.17

Sequence | gcPBM binding intensity (ln)
TATTGTATATACTATACACACACATACATACATACA [CACACA_site8172] | 10.6 ± 0.37
TTTGAATCCTTATATACACACATTATAAAATATTAT [CACACA_site6406] | 10.2 ± 0.23
ATAAGGAAGGGATGCACACAAAAGGGTACATAAGAA [CACACA_site4006] | 11.4 ± 0.71
TATTTGTAAATCGATACACACATATAGATTAATATA [CACACA_site6237] | 10.04 ± 0.057
ACCATTTGTAGGTAAACACACATTATTATTAATATC [CACACA_site2635] | 10.1 ± 0.18
ATGGATTATACGTGCACACATATATACAAATAAATA [CACACA_site640] | 10.6 ± 0.54
TACATCATACGAACAGTGCATATTATTATTGTTCTG | 9.955 ± 0.007
TAAAATGCAATCTGAACACACATATTTTTTTAATAT [CACACA_site6922] | 9.76 ± 0.17
ATGTATATTACTCATTGTACTTATATTTTCTTATTA [XGTACX_site8897] | 11.2 ± 0.74
TATATATCATATGATACATGCAACAAAATGCATAAT [TGCATGCA_site205] | 9.93 ± 0.13
TACTTACCAAAATACACACACACACTAGATATATAA [CACACA_site5096] | 10.1 ± 0.16
GGATATTCATTAACCACACACACAAAAAAAATAAAA [CACACA_site3800] | 10.2 ± 0.25
GTATTTATAAATTATAGTACTTTGCGTATCATATAT [XGTACX_site7358] | 11.2 ± 0.58
ATTTTATATCTGGATAGTACTTTAATATTTCAAATG [XGTACX_site7304] | 10.9 ± 0.41
AGAATTCGTTTAAAAAGTACATTCAATTTAATAATG [XGTACX_site6603] | 11.2 ± 0.86
AATATTTTAAAAAAAAGTACATTATATATATATGTT [XGTACX_site8073] | 11.4 ± 0.91
TAGTATTAAAATATTTGTACTTATATGTATTATATA [XGTACX_site538] | 11 ± 0.69
TGTAGTCTGGAGAAGAGTACACAGTATCTGGTAACA [XGTACX_site2038] | 11.5 ± 1.1
TGTATATATAAACATGCACACGTGGTTGTATATATA [CACACA_site9078] | 10.2 ± 0.23
TCATAGTATAGACACACACACACACGCATATAAATA [CACACA_site6915] | 10.2 ± 0.18
TCTTTGTAAATTTCTTGTACGTAAATTTTTTTTAGG [XGTACX_site7062] | 11.5 ± 0.93
TATTTTACATCTTCTCACATTTTATCACTTTTTAAA [CACACA_negctrl_site330] | 10.13 ± 0.078
AATAAAAAGGAACACACACACACACGGATATAAATA [CACACA_site7658] | 10.2 ± 0.2

Sequence | gcPBM binding intensity (ln)
ATTTATTTATTGGCACGTACAAATTTGTGTTTTCCA [XGTACX_site6978] | 11.2 ± 0.67
TTGTAAATTTCTGGTTATATATTTTATGTATATGTT [CACACA_negctrl_site1443] | 9.97 ± 0.11
TTTTTTTCTTTTCAAACACACAATTGGTATATATCA [CACACA_site7542] | 10.2 ± 0.42
TTTTTTTTATGGTACACACACGCGTATGGTTGCACG [CACACA_site1877] | 11.5 ± 0.91
TTATTTTTGTTCATAGTGCATAGAATTTATACATAT | 10.1 ± 0.16
ATAGACAGCGCACAAACACACAAACACAGACCCCCA [CACACA_site4409] | 10.9 ± 0.61
ATATATTTAAACTACACACGCATATCTTAGAAATAA [CACACA_site1272] | 10.06 ± 0.021
TATAAAAAAAGAGGAGGGATGGTATACTTGTGGTTT [TGCATGCA_negctrl_site49] | 9.78 ± 0.071
AAAGAAATGAAATATACACACATACATAAATACATA [CACACA_site6081] | 10.01 ± 0.057
AATTATATATTATAATGTACATATATATAACTATAC [XGTACX_site1865] | 11.1 ± 0.64
ATAAAGGAAATTACAAGTACAAATAAGATAAAATAA [XGTACX_site4514] | 11.1 ± 0.57
CGTATATGACAAAAGCGTACGCATCAGCAGAAAAAT [XGTACX_site6248] | 11.4 ± 0.88
ATATATATATATATATGTACTGAATAAAGAACAAAA [XGTACX_site5400] | 11 ± 0.64
AGAAATAAGAAATATACACACATATAAATATAAATA [CACACA_site7342] | 9.81 ± 0.028
AAAAAAAATGATAATATACACACTTATGGGAGAGCG [CACACA_site2516] | 9.745 ± 0.007
TATATTTTTTAAACCACACACAATATAGAGTAGAAT [CACACA_site613] | 10.29 ± 0.049
TAATGTACATAAACCGCACACATATAAAAAAATAAA [CACACA_site2851] | 11.1 ± 0.95
AGGGGAAATAAAATATAAATTATCATATATATATAT [XGTACX_negctrl_site366] | 9.73 ± 0.28
AGAATATGTTAAAAAAGTACATACTCTTTATATACG [XGTACX_site79] | 11.4 ± 0.79
TAAAAAAAAACATATACACACAAAAACGTACACATA [CACACA_site1354] | 11.8 ± 1.1
TTTTTTTCTCACAATCGTACATAAATACATATATAT [XGTACX_site3150] | 11.1 ± 0.75
AATACAGAGGAAAATACACACGTATATATATAAATA [CACACA_site9125] | 10.14 ± 0.035
TAGAATAATCCTTACACACACACACCCACGAATAAA [CACACA_site483] | 10.4 ± 0.42

Sequence | gcPBM binding intensity (ln)
TGCAATGGAGCATAAAGTACATATAATTGTATTTTT [XGTACX_site7349] | 11.1 ± 0.46
TTTTAAAATTATTAGGTGCATATTTATTCTATATTT | 9.92 ± 0.028
TGTTTTTTTATTTTCACACATAATCCAATTATACAT [CACACA_site6070] | 10.2 ± 0.13
TTTTAAAAAAAAAAAAAAAAAAAAAAAAAAAAAAAA [CACACA_negctrl_site1343] | 9.55 ± 0.2
AGGTCTATATAATAAGTGCATTTTTTTTTTTTTTTT [GTGCAC_site9664] | 10.2 ± 0.26
GTTATACTCATCAACACACACATACAACGTGGTGTA [CACACA_site4789] | 9.955 ± 0.078
TTAAAAAAATATAGAGCATGCTAAAAATAAAAAAAT [TGCATGCA_site794] | 9.71 ± 0.12
AATAAAAATAATATAGTGCATAATATAAGGAAAAAA | 10 ± 0.028
CAACACTTAGATTTTAAGTTCACTGGTTAATATATA [CACACA_negctrl_site707] | 10 ± 0.15
CACATAAAAAAATAAACACACATATGTATTTATATA [CACACA_site5718] | 9.82 ± 0.31
CATATCATTGATTATAGTACACATACCATTTTTTAT [XGTACX_site6572] | 11.2 ± 0.86
ATCAACAAAACATACACACACATATATATATATATA [CACACA_site2989] | 10.1 ± 0.34
TTTCTATATCTATTTAATTAACTTTTTATACTGATT [GTGCAC_negctrl_site415] | 9.68 ± 0.14
GCATCTCATTTGTGATGTACTATATTATCCGTTTTT [XGTACX_site7576] | 10.9 ± 0.74
TTTTTTGTTAAAAGAGTGCAAATTTTTAAAGATTTG [GTGCAC_site9502] | 10.2 ± 0.46
TATATGTTTGAATATACACACAACATATTTATATAT [CACACA_site7832] | 9.875 ± 0.064
AAAAAAAAAAAATATGTACACACATATATAATACAT [CACACA_site8473] | 11.4 ± 0.95
AAATACATTAAAATGACATGCAGATATATATCAAAA [TGCATGCA_site477] | 9.83 ± 0.085
TATATATCAATATTTACACACATGCGCCCACATAAA [CACACA_site7185] | 10.8 ± 0.45
AGTAATATAATATAAGCACACGTGTATTTATTTAGG [CACACA_site7921] | 10.18 ± 0.057
